# Measured values from PMC4336329 (PLoS ONE, 2015).
# The campaign covered roughly 310,000 compounds. About 2,200 (0.71%) showed an effect of 50% or more. Effects have a minus sign here. This is one part of the list.
# Molecular target: human ether-à-go-go-related gene (hERG) potassium channel (human, UniProt Q12809)
# Assay: primary screen, population patch clamp on CHO cells stably expressing hERG
# human ether-à-go-go-related gene (hERG) potassium channel, sequence (Q12809 whole entry, looked up): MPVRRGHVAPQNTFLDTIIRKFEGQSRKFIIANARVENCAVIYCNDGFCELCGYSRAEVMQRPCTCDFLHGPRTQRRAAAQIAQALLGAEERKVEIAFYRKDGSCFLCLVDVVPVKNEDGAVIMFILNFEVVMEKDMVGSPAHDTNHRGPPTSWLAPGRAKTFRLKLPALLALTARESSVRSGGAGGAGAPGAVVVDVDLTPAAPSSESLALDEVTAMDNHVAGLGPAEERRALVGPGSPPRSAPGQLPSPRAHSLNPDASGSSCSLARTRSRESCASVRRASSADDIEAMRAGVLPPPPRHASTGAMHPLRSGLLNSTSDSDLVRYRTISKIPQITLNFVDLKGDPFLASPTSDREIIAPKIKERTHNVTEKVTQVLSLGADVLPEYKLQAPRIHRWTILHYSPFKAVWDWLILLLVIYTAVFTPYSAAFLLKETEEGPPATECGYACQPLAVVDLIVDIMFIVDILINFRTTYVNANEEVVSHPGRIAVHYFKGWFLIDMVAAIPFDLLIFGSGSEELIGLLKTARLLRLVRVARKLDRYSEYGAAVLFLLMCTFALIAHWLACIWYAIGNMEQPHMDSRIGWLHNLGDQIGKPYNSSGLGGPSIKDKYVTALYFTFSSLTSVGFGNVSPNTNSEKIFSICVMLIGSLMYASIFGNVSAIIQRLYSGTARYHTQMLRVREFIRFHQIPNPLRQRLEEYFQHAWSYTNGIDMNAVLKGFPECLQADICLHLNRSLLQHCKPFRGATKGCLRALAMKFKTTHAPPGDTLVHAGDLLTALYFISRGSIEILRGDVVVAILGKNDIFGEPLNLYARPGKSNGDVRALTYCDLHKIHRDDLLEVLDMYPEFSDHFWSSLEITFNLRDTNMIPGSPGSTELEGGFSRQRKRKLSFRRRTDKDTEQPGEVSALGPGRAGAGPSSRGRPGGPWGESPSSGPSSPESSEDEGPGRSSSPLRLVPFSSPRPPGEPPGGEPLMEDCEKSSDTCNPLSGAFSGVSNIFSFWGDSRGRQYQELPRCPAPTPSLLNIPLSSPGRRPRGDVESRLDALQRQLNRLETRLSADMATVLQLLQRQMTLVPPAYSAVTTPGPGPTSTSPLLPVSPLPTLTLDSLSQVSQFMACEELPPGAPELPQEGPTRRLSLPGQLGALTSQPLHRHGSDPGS
row,SMILES,"hERG current change (%, negative = inhibition) at 1uM [%]"
1,CN(CC(=O)NNC(=O)CNC(=O)c1ccccc1Cl)S(=O)(=O)c1ccc(Cl)cc1,18.1
2,S=C(NCCCn1ccnc1)NC1CCCCC1,-5.87
3,COc1ccccc1CCN1CCCC(CN(C)C(=O)c2ccco2)C1 (centres unmarked),-42.8
4,CC12CCC(=O)N1C(C(=O)NCCc1ccccc1)CS2 (centres unmarked),4.35
5,Cc1n[nH]c(=O)c2c(NC(=O)CSc3c(Cl)cccc3Cl)oc(C)c12,-1.97
6,CCOC(=O)Nc1c2ccccc2nc2ccccc12,9.63
7,O=C(N/N=C/c1c[nH]c2ccc(Br)cc12)c1ccncc1,12.3
8,CCOc1ccc(C(C(=O)NC2CCCC2)N(CCCO)C(=O)c2ccc(-c3ccccc3)[nH]2)cc1 (centres unmarked),-8.44
9,N#CCCC(CCC#N)(CCC#N)c1cc[n+](CCc2ccccn2)cc1.[Cl-],12.5
10,Cc1ccc(OCCn2cnc3c2c(=O)n(C)c(=O)n3C)cc1,22.9
11,COc1ccc(C)cc1S(=O)(=O)NC1CCCCCC1,8.89
12,CCOC(=O)c1ccc(NC(=O)C(=O)NCc2ccncc2)cc1,0.418
13,CCN(CC)S(=O)(=O)c1ccc(C)c(NC(=O)COc2ccc3c(C)cc(=O)oc3c2)c1,6.53
14,COc1ccc(S(=O)(=O)N2CCn3c2nc2ccccc23)cc1,-4.34
15,Cc1ccc(C2=N/C(=C/c3cccs3)C(=O)N2Nc2ccccc2)cc1,6.14
16,CCn1c(CC(=O)Nc2ccccc2C)nnc1SCC(=O)NC1CCCC1,-0.0032
17,CCN(c1ccccc1)S(=O)(=O)c1cc(C(=O)OC2CCOC2=O)ccc1C (centres unmarked),9.05
18,CC(C)Cn1cc(C(=O)N2CCC(C)CC2)c2c3ccccc3n(C)c2c1=O,-3.32
19,O=C(Nc1ccccc1-c1ccccc1)c1cc(C(F)(F)F)cc(C(F)(F)F)c1,3.19
20,COc1cc(NC(=O)C23CC4CC(C2)CC(n2cnc([N+](=O)[O-])n2)(C4)C3)cc(OC)c1,-13.4
21,Cc1noc(/C=C/N(C)C)c1S(=O)(=O)N1CCCC(C(=O)NC(C)c2ccccc2)C1 (centres unmarked),8.73
22,CCCCNCCOc1ccccc1-c1ccccc1.O=C(O)C(=O)O,3.5
23,CCC(C(=O)NCC1CCCO1)N(Cc1ccccc1)C(=O)CNS(=O)(=O)c1ccccc1 (centres unmarked),4.41

row,SMILES,"hERG current change (%, negative = inhibition) at 1uM [%]"
1,COc1ccc(Cl)cc1NC(=O)Nc1cn(C)nc1C,11.9
2,CCN=C1SC(C(=O)Nc2ccc(OC)cc2)CC(=O)N1CC (centres unmarked),10.1
3,CCOC(=O)C1=NN(C(=O)COc2ccccc2)C(O)(c2ccc(Cl)cc2)C1 (centres unmarked),-3.22
4,Cc1cc(/C=N/n2cnnc2)c(C)n1-c1cccc(Cl)c1,3.09
5,O=C(COC(=O)/C=C/c1cccc(C(F)(F)F)c1)Nc1ccc(Cl)cn1,14.5
6,CCc1ccc2c(c1)C(=O)C[C@]1(CCC[C@H](C)C1)O2,-5.59
7,Nc1ccc2nc(CCc3ccccc3)[nH]c2c1,2
8,CSc1nnc(-c2ccco2)c(-c2ccco2)n1,9.59
9,COc1ccc(-c2c3c(=O)n(C)c(=O)n(C)c3cn2-c2ccccc2O)cc1,14
10,COc1ccccc1NC(=O)CSC(N)=O,16.1
11,CN(C)C(=O)Cn1c(SCC(=O)NC2CCCCC2)nc2ccccc21,12.2
12,CCCCCCC(C)(C)c1ccc([C@@H]2C[C@H](O)CC[C@H]2CCCO)c(O)c1,10.3
13,COCC1CCN(C(=O)C2CCC(=O)N(CCc3cccc(F)c3)C2)CC1 (centres unmarked),10.9
14,Cc1noc(C)c1COc1ccc(C(=O)OCC(=O)Nc2ccc3ccccc3c2)cc1,8.77
15,O=C(Nc1nnc(CCN2CCOCC2)s1)C1CCCCC1,9.36
16,CCOc1ccc(C2c3cc(OC)c(OC)cc3CC(=O)N2c2ccc(OC)cc2)cc1 (centres unmarked),20.9
17,CCCN(CC1CC1)CC(O)c1ccccc1.O=C(O)C(=O)O (centres unmarked),16.7
18,Fc1ccc(-c2cc(C(F)(F)F)nc(NCC3CCCO3)n2)cc1 (centres unmarked),11.8
19,O=C(O)C1CCCCC1C(=O)N1CC=C(c2ccccc2)CC1 (centres unmarked),11
20,CCCn1nc(C(=O)NNC(=O)C2CSC3(C)CCC(=O)N23)c2ccccc2c1=O (centres unmarked),8.62
21,CCOC(=O)CC1NCCc2c1[nH]c1ccc(OC)cc21.Cl (centres unmarked),10.5
22,CC1CCN(C(=O)CSc2nnc(CNC(=O)COc3ccc(Cl)cc3)o2)CC1,10.5
23,COc1ccc(C(=O)Nc2cccc(-c3csc(C)n3)c2)cc1S(=O)(=O)N1CCCC1,2.41

row,SMILES,"hERG current change (%, negative = inhibition) at 1uM [%]"
1,O=C(CN1CCN(S(=O)(=O)c2ccccc2)CC1)Nc1ccc(Cl)cn1,-9.81
2,O=C(NC1CCCC1)C(c1ccsc1)N(Cc1ccccc1)C(=O)Cc1cccs1 (centres unmarked),3.99
3,O=C(Cc1cccs1)Nc1cccc(-c2nc3ccccc3[nH]2)c1,8.25
4,COc1ccc(C(N)CCc2ccc(C)o2)cc1.Cl (centres unmarked),1.02
5,O=C(NC1CC1)c1ccc2c(c1)ncn2C1CCCC1,3.39
6,CN(Cc1ccncc1)C1CC(=O)N(c2ccc(F)cc2)C1=O (centres unmarked),13.6
7,COc1ccccc1N1C(=O)NC(=O)/C(=C/c2ccc3c(c2)Cc2ccccc2-3)C1=O,7.53
8,CCOc1cccc(CN2CCN(c3cccc(C(F)(F)F)c3)CC2)c1O,-19
9,Cc1nnc(NC(=O)CSc2nnc(CNC(=O)C34CC5CC(CC(C5)C3)C4)n2C2CCCCC2)s1,11.9
10,Cc1ccccc1CN(c1ccc(C(=O)N2CCc3ccccc3C2)cc1)S(C)(=O)=O,-11.6
11,O=S(=O)(c1ccc(-c2ccccc2)cc1)N1CCCCC1,14
12,Cc1cc(N2CCN(c3nc4ccccc4s3)CC2)n2ncnc2n1,-74.9
13,CCCc1cc(=O)[nH]c(SCC(=O)Nc2ccc(OC(F)F)cc2)n1,8.93
14,COc1ccc(S(=O)(=O)N2CCC(C(=O)Nc3ccc(F)cc3)CC2)c2cccnc12,-1.03
15,Cc1ccccc1Cn1ccc(NC(=O)c2cnn3c2NC(c2ccccc2)CC3C(F)(F)F)n1 (centres unmarked),-6.19
16,Cc1ccc(NC(=O)c2ccc(OC(=O)c3cc4ccccc4o3)cc2)cc1,6.15
17,CS(=O)(=O)N(CC(=O)N1CCCC1)c1cc(Cl)c(Cl)cc1Cl,-0.569
18,Cc1ccc(-n2c(O)c(/C=N/N3CCOCC3)c(=O)[nH]c2=S)cc1,6.03
19,COc1ccc(Cc2nnc(NC(=O)C3CC(=O)N(CCc4ccc(F)cc4)C3)s2)cc1OC (centres unmarked),19.5
20,O=C(N/N=C/c1cccnc1)/C(=C\c1cccs1)NC(=O)c1ccccc1,4.1
21,CC(C)c1ccc(C2NC(=O)c3ccccc3O2)cc1 (centres unmarked),11.9
22,COCCCn1c(=S)[nH]c(C)c(C)c1=O,13.1
23,Cn1c(SCC(=O)Nc2ccc(N3CCOCC3)cc2)nnc1-c1ccccc1F,0.175

row,SMILES,"hERG current change (%, negative = inhibition) at 1uM [%]"
1,CCOC(=O)[C@H]1[C@H]2COc3ccc(OC)cc3[C@@H]2N2C(=O)c3cc(OC)ccc3NC(=O)[C@@]12C,3.96
2,CN(C(=O)COc1ccc([N+](=O)[O-])cc1)C1CCS(=O)(=O)C1 (centres unmarked),9.28
3,O=C(CN1CCCCC1)NCCNC(=O)CN1CCCCC1,4.2
4,Cc1ccc2cc(C#N)c(NCCNC(=S)NCCCN(C)C)nc2c1C,7.13
5,COc1cccc(Oc2ccc(N/C=C/C(=O)C(C)(C)C)cc2)c1,9.86
6,Cc1cccc(C)c1OCc1n[nH]c(=S)n1-c1ccccc1,17
7,COc1ccc(-n2c(SCC(=O)N3CCC(C(=O)O)CC3)nc3ccccc3c2=O)cc1OC,20
8,O=C(NN=C1CCCC1)c1ccccc1[N+](=O)[O-],15.6
9,N#Cc1ccsc1NC(=O)CCN1CCN(C(c2ccccc2)c2ccccc2)CC1,11.4
10,Cc1cc(Nc2ccc(F)c(Cl)c2)n2ncnc2n1,6.23
11,CCCc1nn(C)c(C(=O)Nc2cccc(CC)c2)c1Cl,6.37
12,CCCCn1c(SCC(=O)Nc2oc(C)c3c(C)n[nH]c(=O)c23)nc2cc(S(N)(=O)=O)ccc21,-2.66
13,CCc1ccccc1NC(=S)N(Cc1ccco1)C(C)c1cccs1 (centres unmarked),14.6
14,O=C(NNC1=NS(=O)(=O)c2ccccc21)c1ccccc1,-5.92
15,O=C(NNc1ccc(F)cc1F)C1CCC1,3.02
16,COCCSc1ccccc1C(=O)N1CCOCC1,5.01
17,Cn1c(=O)cc(SCC(=O)N2CCCC2)c2ccc(Cl)cc21,-0.412
18,COc1ccccc1CNC(=O)c1cnc2sccn2c1=O,9.16
19,Cc1cnc(C(=O)OCC(=O)c2ccc(Cl)cc2)cn1,-2.74
20,CCn1c(N2CCN(S(=O)(=O)c3ccccc3)CC2)nc2ccccc21,3.24
